# Paper PMC4336329 (PLoS ONE, 2015)
# About 2,200 (0.71%) of roughly 310,000 compounds showed an effect of 50% or more. The effect is printed as a negative number. The list shows a part of the results.
# Molecular target: human ether-à-go-go-related gene (hERG) potassium channel (human, UniProt Q12809)
# Experiment: primary screen, population patch clamp on CHO cells stably expressing hERG
# human ether-à-go-go-related gene (hERG) potassium channel, sequence (Q12809 whole entry, looked up): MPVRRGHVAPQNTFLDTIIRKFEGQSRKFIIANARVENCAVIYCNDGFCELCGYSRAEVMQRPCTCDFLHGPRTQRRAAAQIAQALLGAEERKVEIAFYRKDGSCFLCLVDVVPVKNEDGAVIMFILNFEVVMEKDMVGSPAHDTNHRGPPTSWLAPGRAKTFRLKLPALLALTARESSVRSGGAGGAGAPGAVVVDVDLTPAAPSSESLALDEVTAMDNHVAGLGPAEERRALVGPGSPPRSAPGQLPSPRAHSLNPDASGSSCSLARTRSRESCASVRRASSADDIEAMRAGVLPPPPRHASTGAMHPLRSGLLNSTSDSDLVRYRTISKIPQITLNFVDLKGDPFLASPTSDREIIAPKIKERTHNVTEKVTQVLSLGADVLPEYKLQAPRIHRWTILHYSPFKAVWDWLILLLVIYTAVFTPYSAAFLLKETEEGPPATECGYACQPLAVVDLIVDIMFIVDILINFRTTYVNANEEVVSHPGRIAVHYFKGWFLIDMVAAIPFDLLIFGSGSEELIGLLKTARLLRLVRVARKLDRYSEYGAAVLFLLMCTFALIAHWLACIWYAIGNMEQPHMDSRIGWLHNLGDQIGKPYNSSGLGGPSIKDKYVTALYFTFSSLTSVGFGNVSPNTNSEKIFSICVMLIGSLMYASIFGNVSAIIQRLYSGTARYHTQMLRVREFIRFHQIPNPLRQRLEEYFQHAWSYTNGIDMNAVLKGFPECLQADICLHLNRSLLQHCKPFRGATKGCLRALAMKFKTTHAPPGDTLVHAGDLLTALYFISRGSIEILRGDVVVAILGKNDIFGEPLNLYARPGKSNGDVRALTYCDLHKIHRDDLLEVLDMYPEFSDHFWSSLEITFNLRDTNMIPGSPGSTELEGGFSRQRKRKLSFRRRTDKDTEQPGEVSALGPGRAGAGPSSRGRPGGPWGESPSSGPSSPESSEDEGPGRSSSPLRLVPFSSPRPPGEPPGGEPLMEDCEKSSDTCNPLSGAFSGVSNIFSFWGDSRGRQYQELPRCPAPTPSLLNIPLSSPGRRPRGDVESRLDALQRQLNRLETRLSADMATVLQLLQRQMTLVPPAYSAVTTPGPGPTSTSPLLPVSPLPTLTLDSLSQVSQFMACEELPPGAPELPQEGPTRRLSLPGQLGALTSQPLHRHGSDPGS
row,Compound,"hERG current change (%, negative = inhibition) at 1uM"
1,Cc1ccc(C)c(Nc2c([N+](=O)[O-])c(=O)oc3ccccc23)c1,3.87%
2,CCOc1ccc(-n2nnnc2SCC(=O)Nc2cccc(O)c2)cc1,12.5%
3,O=C(/C=C/c1cccc(F)c1)c1ccc(N2CCOCC2)cc1,-0.411%
4,COc1cccc(C(=O)C2CCCN(Cc3cn[nH]c3C3CCCCC3)C2)c1 (centres unmarked),1.53%
5,COc1cccc(CN2CCN(Cc3cc4ccccc4[nH]3)CC2CCO)c1 (centres unmarked),-14.3%
6,OCc1nc2ccccc2n1C/C=C/c1ccccc1,4.41%
7,Cc1[nH]n(-c2ccccc2)c(=O)c1C=NCc1ccco1,8.95%
8,CCS(=O)(=O)c1nc(S(=O)(=O)c2ccc(C)cc2)c(N2CCC(C)CC2)s1,7.27%
9,O=C(CSc1nn(-c2ccccc2)c(=S)s1)NC1CCS(=O)(=O)C1 (centres unmarked),11%
10,Br.CC(C)CC1CC(C)(c2csc(NNC(=O)c3ccccc3)n2)OC1=O (centres unmarked),-11.3%
11,CC(=O)c1c(C)[nH]c(C(=O)Nc2cccc(C)c2C)c1C,4.47%
12,COc1ccc(C(=O)Nc2c(Cl)cc(Cl)cc2C(=O)NCc2ccco2)cc1,22.7%
13,Cn1c(=O)c(C(=O)NNC(=O)c2ccccc2Br)c(O)c2ccccc21,9.93%
14,CCc1ccc(OCC(=O)N/N=C(\C)c2ccc(-n3ccnc3)cc2)cc1,-7.7%
15,COc1ccc(C2CC(c3ccc(OC)c(OC)c3)=NN2S(C)(=O)=O)cc1 (centres unmarked),4.81%
16,CCN(CC)S(=O)(=O)c1cccc(C(=O)N[C@H](C(=O)OCC(=O)NC(=O)NC)C(C)C)c1,5.78%
17,COc1ccc(-c2nnc(SCC(=O)Oc3ccc(C)cc3)o2)cc1,7.8%
18,Cc1ccc2nc(NC(=S)NC(=O)c3ccc(OC(C)C)cc3)sc2c1,11.4%
19,CCCNC(=O)c1c(N)n(-c2cc(OC)cc(OC)c2)c2nc3ccccc3nc12,1.39%
20,CC(c1nccs1)N(C)C(=O)CCc1nnc(-c2ccc(-c3ccccc3)cc2)o1 (centres unmarked),4.66%
21,Cc1nonc1NC(=O)CSc1nnc(-c2ccoc2C)n1CC(C)C,7.29%
22,COc1ccc(CCNC(=O)CSc2nc(N)c(C#N)c(-c3cccs3)c2C#N)cc1OC,11.8%
23,S=C(NNc1nc(Nc2ccccc2)nc(N2CCCCC2)n1)NC1CCCCC1,16.2%

row,Compound,"hERG current change (%, negative = inhibition) at 1uM"
1,O=C(CCl)N(c1ccc(Cl)cc1)c1c[nH]c2ccccc12,12%
2,Fc1ccc(C2c3cccn3CCN2C(=S)Nc2cccc(Br)c2)cc1 (centres unmarked),20%
3,COC(=O)c1cccc(NC(=O)Nc2ccc(Cl)cc2Cl)c1,13.8%
4,O=C(c1cccnc1)N1N=C(c2cccs2)CC1c1ccc(F)cc1 (centres unmarked),2.99%
5,Cc1cccc(/C=N/Nc2ccc3ccccc3n2)c1,4.22%
6,CC/C(C)=N\NC(=O)CNC(=O)c1ccc(Cl)cc1Cl,0.352%
7,Cc1ccc(SCc2cc(=O)[nH]c(SCC(=O)Nc3cc(Cl)ccc3Cl)n2)cc1,23.3%
8,Cc1ccc(NC(=O)C(=O)NC2CCCCC2)cc1,14.1%
9,Cc1cc([N+](=O)[O-])nn1CC(=O)NCc1cccs1,8.25%
10,Nc1nonc1-n1nnc(C(=O)N/N=C/c2ccco2)c1-c1ccccc1,9.78%
11,Cc1ccc(S(=O)(=O)N2CCOCC2)cc1NC(=O)COC(=O)Cc1cccs1,-13.7%
12,COc1ccc(N(CC(=O)N2CCN(c3ccccc3F)CC2)S(=O)(=O)c2c(C)n[nH]c2C)cc1,-3.21%
13,COC(=O)N1CCN(c2ccc(C)c(C)c2)CC1,-6%
14,COc1ccccc1-n1c(CNC(=O)c2ccccc2)nnc1SCC(=O)Nc1nnc(C)s1,13.4%
15,CCC(=O)Nc1cccc(C(=O)/C=C/c2ccccc2)c1,0.148%
16,CCCCNC(=S)N(CCCO)Cc1cc2cc3c(cc2[nH]c1=O)OCCO3,6.85%
17,O=C1CCC(=O)N1CC(=O)N(c1ccccc1)c1ccccc1,-1.34%
18,CCCCCOC(=O)C(C)Sc1n[nH]c(=O)[nH]c1=O (centres unmarked),7.7%
19,CC1=NN(C(=O)Cc2ccc([N+](=O)[O-])cc2)C(O)(c2ccccc2)C1 (centres unmarked),3.62%
20,CN(C)CCNc1c2c(nc3nnnn13)CCCC2,2.28%
21,CCOc1ccc(NC(=O)CN(C)C(=O)c2cccnc2Sc2ccc(C)c(C)c2)cc1OCC,5.82%
22,CCN1C(=O)[C@H]2[C@@H](c3ccc(C)cc3)N3C(=O)N(c4ccc(OC)cc4)C(=O)[C@@]3(CC)[C@H]2C1=O,15.6%
23,Cc1nn(CC(=O)NC(C)c2ccccc2)c(=O)c2ccccc12 (centres unmarked),17.6%

row,Compound,"hERG current change (%, negative = inhibition) at 1uM"
1,CCN(CC)C(=O)C(=O)c1cccn1-c1cccc(-n2cccc2C(=O)C(=O)N(CC)CC)c1C#N,15.2%
2,CCN1C(=O)C(O)(CC(=O)/C=C/C=C/c2ccccc2)c2ccccc21 (centres unmarked),7.97%
3,CCCCSc1nnc(-c2ccc(C)cc2)o1,9.78%
4,COc1ccc(NC(=O)CSc2nccn2-c2ccccc2)c(OC)c1,7.53%
5,O=c1cc(-c2ccccc2)c2cc3c(cc2[nH]1)OCCO3,16%
6,Cc1nc([N+](=O)[O-])cn1C(C)C,11.6%
7,CCOc1ccc(NC(=O)c2cc(=O)[nH]c3ccccc23)cc1,9.69%
8,Cc1ccc2c(c1)sc1nc(=O)n(-c3ccc(Cl)c(Cl)c3)c(=O)n12,8.13%
9,CO/N=C/NC(=O)c1cn(-c2ccc(F)cc2)c(=O)c2ccccc12,7.78%
10,O=C(NCc1ccccc1OC(F)(F)F)C1CCC(=O)N(Cc2cccc(F)c2)C1 (centres unmarked),9.17%
11,Cc1noc(C)c1COC(=O)c1ccc2c(c1)OCO2,7.03%
12,Cc1cccc2nc(CSc3ccccc3N)cn12,4.45%
13,COc1c(OC(C)=O)c(=O)n2c3ccccc3c3ccnc1c32,10.1%
14,Cc1cc(C)n(-c2ccc(NC(=O)C3CCCCN3C(=O)c3ccc(C)s3)cc2)n1 (centres unmarked),8.63%
15,COc1ccc(C(=O)Nc2ccccc2N2CCCC2)cc1,-9.98%
16,Cc1ccc(N2C=Nc3ccc(C)c4nc(C)cc2c34)cc1,0.692%
17,Cn1c(O)c(C=NCc2ccco2)c(=O)n(C)c1=O,-4.48%
18,O=c1c(-c2ccccc2)nc(-c2ccccc2)cn1O,6.43%
19,CCNc1nc(NCC)nc(OCCOC(=O)c2ccccc2)n1,-2.13%
20,O=C(Nc1ccc(Cl)cc1)[C@@H]1[C@@H]2C(=O)N(c3ccc4ccccc4c3)C(=O)[C@@H]2[C@H]2C=CC=NN21,-0.317%
21,CCc1ccc(OCC(=O)NC(=S)Nc2cccc(CO)c2)c(Br)c1,7.5%
22,CC(C)NC(=O)CN1CCN(c2ncccn2)CC1.O=C(O)C(=O)O,9.84%
23,CC12CC3(C)CC(C)(C1)CC(NC(=O)N1CCCC1)(C2)C3,9.58%

row,Compound,"hERG current change (%, negative = inhibition) at 1uM"
1,Cc1cc(N2CCN(C)CC2)n2cc(-c3ccc(F)cc3)nc2n1,-89.8%
2,O=C(CCCN1C(=O)c2cccc3cccc(c23)C1=O)NCCN1CCOCC1,6.26%
3,CC1CCCCC1NC(=O)c1cc2c(=O)n3ccccc3nc2n1C (centres unmarked),7.84%
4,Cc1cc(C)nc(-n2nc(C)c(Sc3ccc(F)cc3)c2N)n1,-11.3%
5,CCOC(=O)c1oc2ccccc2c1COC(=O)CNC(=O)c1cc(OC)c(OC)c(OC)c1,1.17%
6,O=C(CNC(=O)c1ccc(Br)cc1)NCC(=O)OCC(=O)c1ccc([N+](=O)[O-])cc1,12.9%
7,O=C1C2CCCCN2C(=O)N1CCCN1CCN(c2ccc(F)cc2)CC1 (centres unmarked),-3.12%
8,CCOC(=O)CNc1nc(C(C)(C)C)nc2c1nnn2Cc1ccccc1,10%
9,CCCc1nc(SC)[nH]c(=O)c1C,11.1%
10,CCc1ccc(C(=O)NC(=S)Nc2ccc(N3CCOCC3)cc2)cc1,7.41%
11,Nc1ncn(CC(=O)c2ccccc2)n1,2.92%
12,CCOc1ccc(C(=O)NCCCn2ccnc2)cc1,-8.73%
13,OCCC1CN(C/C=C/c2ccco2)CCN1Cc1ccccc1 (centres unmarked),7.33%
14,COc1ccc(-c2cc(C(=O)NC(Cc3cc4ccccc4[nH]3)C(=O)O)c(C)o2)cc1OC (centres unmarked),18.3%
15,COc1ccc(CCC(=O)OCC(=O)NCc2ccc3c(c2)OCO3)cc1,-5.62%
16,O=C(NN1C(=O)c2ccccc2NC1c1ccccn1)c1ccccc1 (centres unmarked),10.5%
17,Cc1c(NC(=O)c2ccc(N(C)S(C)(=O)=O)cc2)c(=O)n(-c2ccccc2)n1C,13.8%
18,O=C(N/N=C\c1ccc(Cl)cc1Cl)c1sccc1-n1cccc1,3.71%
19,S=C(NCCCN1CCOCC1)Nc1cccc(Cl)c1,5.89%
20,CCCNC(=O)c1cn(CC)c2cc(N3CCN(C)CC3)c(F)cc2c1=O,10.8%
